In a compilation of properties of binary mixtures (doi:10.1016/j.molliq.2016.08.084):
The densities may have been worked out from excess volumes.

Assay: xn = mol fraction of the nth substance listed
Conditions: 101 kPa

CCCC[n+]1ccn(C)c1.F[B-](F)(F)F + O
mass density [kg/m3]
Conditions	283.15 K	293.15 K	303.15 K	313.15 K	323.15 K	343.15 K	353.15 K	363.15 K
x2 = 0	1212	–	–	1190.5	1183.4	1169.5	1162.6	1155.8
x2 = 0.034	1211	–	–	1189.4	1182.4	1168.4	1161.6	–
x2 = 0.0615	1210.1	–	–	–	–	1167.5	1160.6	–
x2 = 0.1135	1208.5	1201.2	1194	–	1179.8	1165.8	–	1152
x2 = 0.2063	1205.4	–	–	–	–	1162.6	1155.6	1148.7
x2 = 0.2802	–	1194.9	1187.6	–	–	1159.2	1152.2	–
x2 = 0.3977	1195.9	–	–	–	–	–	–	1138.3
